We go through ten molecules from PMC3261159.

The chains behind the UniProt entries cited, without tags or fusion partners. Where a name states a change or a piece, a line headed by the entry shows the natural chain unless it says otherwise. A line that says so, or that is headed by a name, gives the form on record, which may keep a tag or linker.
UniProt P40763: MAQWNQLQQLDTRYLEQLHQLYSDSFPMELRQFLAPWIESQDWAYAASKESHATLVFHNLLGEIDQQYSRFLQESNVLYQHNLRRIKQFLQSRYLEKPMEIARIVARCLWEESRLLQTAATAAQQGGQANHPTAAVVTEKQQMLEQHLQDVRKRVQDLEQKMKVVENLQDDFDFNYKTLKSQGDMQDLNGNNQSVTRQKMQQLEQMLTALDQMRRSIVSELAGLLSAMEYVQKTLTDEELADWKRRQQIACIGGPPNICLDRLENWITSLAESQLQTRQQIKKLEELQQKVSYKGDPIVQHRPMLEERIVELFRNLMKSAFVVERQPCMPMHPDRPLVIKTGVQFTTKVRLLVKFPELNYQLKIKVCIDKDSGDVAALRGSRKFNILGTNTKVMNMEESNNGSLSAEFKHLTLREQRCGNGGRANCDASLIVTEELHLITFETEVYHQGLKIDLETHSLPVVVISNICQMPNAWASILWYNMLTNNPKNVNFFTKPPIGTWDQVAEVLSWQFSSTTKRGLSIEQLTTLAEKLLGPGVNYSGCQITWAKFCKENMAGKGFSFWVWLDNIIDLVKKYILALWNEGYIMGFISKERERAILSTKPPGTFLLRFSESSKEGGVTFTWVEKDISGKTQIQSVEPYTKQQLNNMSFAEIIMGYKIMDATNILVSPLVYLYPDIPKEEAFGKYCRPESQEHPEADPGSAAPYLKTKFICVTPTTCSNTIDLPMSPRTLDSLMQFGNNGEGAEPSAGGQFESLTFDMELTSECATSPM
myc-Stat3 (688–770) S727A (P40763, form named): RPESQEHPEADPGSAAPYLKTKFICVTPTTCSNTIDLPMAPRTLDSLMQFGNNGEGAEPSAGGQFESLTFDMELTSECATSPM
UniProt P63104: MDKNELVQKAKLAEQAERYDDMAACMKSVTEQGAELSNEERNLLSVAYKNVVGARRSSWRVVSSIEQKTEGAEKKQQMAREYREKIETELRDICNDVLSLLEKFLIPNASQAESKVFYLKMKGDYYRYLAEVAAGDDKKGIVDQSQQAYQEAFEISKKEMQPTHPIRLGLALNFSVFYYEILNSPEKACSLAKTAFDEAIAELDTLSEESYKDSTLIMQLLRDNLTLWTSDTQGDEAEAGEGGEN
UniProt P31946: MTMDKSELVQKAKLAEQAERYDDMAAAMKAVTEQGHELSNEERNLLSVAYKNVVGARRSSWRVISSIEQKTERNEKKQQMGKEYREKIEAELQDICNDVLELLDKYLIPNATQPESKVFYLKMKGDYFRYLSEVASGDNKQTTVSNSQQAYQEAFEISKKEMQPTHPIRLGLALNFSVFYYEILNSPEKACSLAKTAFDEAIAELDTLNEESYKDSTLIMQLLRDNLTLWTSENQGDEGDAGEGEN
UniProt P62258: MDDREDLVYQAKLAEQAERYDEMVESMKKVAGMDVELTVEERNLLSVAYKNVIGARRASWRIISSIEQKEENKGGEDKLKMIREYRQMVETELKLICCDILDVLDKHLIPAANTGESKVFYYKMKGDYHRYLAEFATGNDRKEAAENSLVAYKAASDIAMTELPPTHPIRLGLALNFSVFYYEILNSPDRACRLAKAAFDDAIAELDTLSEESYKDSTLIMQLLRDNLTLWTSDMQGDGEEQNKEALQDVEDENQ

No constants are given. Whether binding was seen depends on the method and setting. Binding seen in cells or lysates may run through a third protein. Some binding calls cover weakened binding; strength is not graded here.

In assay [1] the target is signal transducers and activators of transcription 3 (Stat3) (human (endogenous in U266)) (UniProt P40763). Briefly: co-IP; endogenous proteins in U266 cell lysate; IP with 14-3-3 isoform specific antibodies or Stat3 antibody overnight at 4°C, Protein A/G Plus beads; lysis buffer 150 mM NaCl, 10 mM HEPES pH 7.5, 0.2% Nonidet P-40; Western blot.
Assay [2] deals with Myc-Stat3 (human) (UniProt P40763). Description: co-IP; U266 cells transfected with Myc-Stat3; lysate in phosphatase assay buffer A (50 mM Tris-Cl pH 7.5, 150 mM NaCl, 1 mM EDTA, 0.25% Nonidet P-40); immunoprecipitate analysed by Western blot (sample of the R18 competition).
The target in assay [3] is HA-14-3-3ζ (human) (UniProt P63104). Briefly: co-IP; U266 cells transfected with Myc-Stat3 constructs and HA-14-3-3ζ; anti-HA immunoprecipitates analysed by Western blot with Myc antibody.
The target in assay [4] is T1, 14-3-3γ (human (endogenous in U266)) (UniProt P61981).
T1 sequence: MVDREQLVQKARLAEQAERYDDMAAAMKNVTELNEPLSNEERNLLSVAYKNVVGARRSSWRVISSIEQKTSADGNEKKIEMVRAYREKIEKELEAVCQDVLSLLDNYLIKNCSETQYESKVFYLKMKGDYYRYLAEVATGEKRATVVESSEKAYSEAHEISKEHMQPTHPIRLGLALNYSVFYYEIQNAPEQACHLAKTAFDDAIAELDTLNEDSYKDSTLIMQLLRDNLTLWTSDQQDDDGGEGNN
Briefly: co-IP; endogenous proteins in U266 cell lysate; IP with 14-3-3 isoform specific antibodies or Stat3 antibody overnight at 4°C, Protein A/G Plus beads; lysis buffer 150 mM NaCl, 10 mM HEPES pH 7.5, 0.2% Nonidet P-40; Western blot.

Assay [5] concerns the target 14-3-3ζ (human (endogenous in U266)) (UniProt P63104). The description is as above.
The target of assay [6] is 14-3-3β (human (endogenous in U266)) (UniProt P31946). The description is as above.
For assay [7], the target named is 14-3-3ε (human (endogenous in U266)) (UniProt P62258). Described as above.
Assay [8] addresses T2, 14-3-3η (human (endogenous in U266)) (UniProt Q04917).
T2 sequence: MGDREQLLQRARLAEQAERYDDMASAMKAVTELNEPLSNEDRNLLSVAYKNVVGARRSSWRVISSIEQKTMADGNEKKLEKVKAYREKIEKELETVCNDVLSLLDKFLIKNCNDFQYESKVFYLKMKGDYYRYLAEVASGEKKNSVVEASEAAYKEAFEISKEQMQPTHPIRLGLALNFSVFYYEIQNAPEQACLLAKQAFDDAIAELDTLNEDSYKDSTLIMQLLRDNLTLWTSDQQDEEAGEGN
The description is as above.

Assay [9] addresses T3, 14-3-3θ (human (endogenous in U266)) (UniProt P27348).
T3 sequence: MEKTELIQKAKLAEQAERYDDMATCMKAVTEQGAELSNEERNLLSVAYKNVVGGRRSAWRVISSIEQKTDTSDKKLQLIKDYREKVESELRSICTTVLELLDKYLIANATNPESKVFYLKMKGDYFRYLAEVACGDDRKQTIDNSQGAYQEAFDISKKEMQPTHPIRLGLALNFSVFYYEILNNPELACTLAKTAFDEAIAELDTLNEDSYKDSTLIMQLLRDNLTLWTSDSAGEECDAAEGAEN
Described as above.

The target in assay [10] is 14-3-3ζ (human (endogenous in U266)) (UniProt P63104). Description: co-IP; competition: immunoprecipitate of the 14-3-3ζ/Myc-Stat3 complex from U266 lysate incubated with various concentrations of R18 peptide for 60 min on ice; Western blot; only the binder purified.

Consider 14-3-3ζ (from UniProt P63104 1-245), for which the binding result in assay [1] and in assay [2] was “binds” each time.

“Myc-Stat3 (1–130) (from UniProt P40763 1-130) (domain or fragment)”: in [3], the binding result is on record as “no binding”.

Regarding “Myc-Stat3 (1–320) (from UniProt P40763 1-320) (domain or fragment)”, in [3], the binding result is recorded as “no binding”.

“Myc-Stat3 (1–465) (from UniProt P40763 1-465) (domain or fragment)”: the binding result in assay [3] is “no binding”.

Turning to “Myc-Stat3 (1–585) (from UniProt P40763 1-585) (domain or fragment)”, the binding result in assay [3] is “no binding”.

For “Myc-Stat3 (1–688) (from UniProt P40763 1-688) (domain or fragment)”, the binding entry in assay [3] was “no binding”.

On to “myc-Stat3 (688–770) (from UniProt P40763 688-770) (domain or fragment)”, for which the binding result in assay [3] is “binds”.

As for “myc-Stat3 (688–770) S727A (from UniProt P40763 688-770) (domain or fragment)”, the binding result in assay [3] is “no binding”.

Turning to “signal transducers and activators of transcription 3 (Stat3) (from UniProt P40763 1-770)”, the binding result in assay [4] is given as “binds weakly”; in assay [5], “binds”; in [6], “binds”; in assay [7], “binds weakly”; in assay [8] it was “no binding”; in assay [9], “binds weakly”.

PHCVPRDLSWLDLEANMCLP [R18 peptide]: the binding entry in assay [10] was “binds”.
